Experimental data reported in US8722849B2, “Polypeptides” (Novo Nordisk A/S, priority 2011, dated 2014).
Like-named read-outs stand apart in the source and are kept apart here. At least one peptide structure holds a part that was inferred or is arguable (an end, a ring closure or a residue). For part of these data: At least one read-out could not be matched to a standard name with certainty. Starred links: 1 amine or outer side, 2 acyl side, 3 side chain; linkers in the order of their positions; H or OH if unused. Positions of bridges follow the written chain, without caps; N, C: chain ends. Residues, ends and D or L forms follow the SMILES beside them. Groups on a side chain read outwards from the residue. *: point of attachment. C20 diacid = O=C(O)CCCCCCCCCCCCCCCCCCC(=O)*; γGlu = O=C(O)[C@H](CCC(=O)[*:2])N[*:1]; AEEA = NCCOCCOCC(=O)O

How the values were obtained:
[1] = target: T1, human amylin receptor (amylin 3(a) receptor: human calcitonin receptor + RAMP-3) (Homo sapiens, UniProt O60896+P30988); experiment: Assay (II)a functional CRE-luciferase assay, human amylin receptor; format: cell-based
T1 construct: expressed in transfected cells; host or cells: BHK570
T1 sequence (P30988 25-474): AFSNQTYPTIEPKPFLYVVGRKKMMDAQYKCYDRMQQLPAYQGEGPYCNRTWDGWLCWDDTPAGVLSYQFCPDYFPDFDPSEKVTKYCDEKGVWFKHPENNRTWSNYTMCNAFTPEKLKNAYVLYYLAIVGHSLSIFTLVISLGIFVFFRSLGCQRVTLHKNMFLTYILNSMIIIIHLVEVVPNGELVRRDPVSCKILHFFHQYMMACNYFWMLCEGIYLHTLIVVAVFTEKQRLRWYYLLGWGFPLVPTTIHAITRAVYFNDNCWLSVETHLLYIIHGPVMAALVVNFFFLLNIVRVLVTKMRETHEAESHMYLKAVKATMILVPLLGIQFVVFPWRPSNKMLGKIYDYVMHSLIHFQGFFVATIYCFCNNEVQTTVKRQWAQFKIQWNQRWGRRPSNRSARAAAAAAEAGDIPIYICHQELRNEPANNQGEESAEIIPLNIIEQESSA
T1 sequence (O60896 24-148 partner): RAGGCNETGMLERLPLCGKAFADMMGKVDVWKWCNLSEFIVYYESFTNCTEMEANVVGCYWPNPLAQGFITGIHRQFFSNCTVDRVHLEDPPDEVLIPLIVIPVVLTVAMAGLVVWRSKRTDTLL

[2] = target: T2, human calcitonin receptor (Homo sapiens, UniProt P30988); experiment: Assay (II)a functional CRE-luciferase assay, human calcitonin receptor; format: cell-based
T2 construct: expressed in transfected cells; host or cells: BHK570
T2 sequence (P30988 25-474): T1 sequence (P30988 25-474)

[3] = Assay (III) ThT fibrillation assay for physical stability; format: physicochemical; conditions: ThT fibrillation assay
Procedure, shortened: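 Freshly prepared formulations, pH-adjusted, with 1 μM ThT; four or eight replicates incubated at 37 °C under 960 rpm orbital shaking. Fluorescence (ex 444/em 485 nm) read every 20 min; […]. Peptide concentration measured by RP-HPLC before and after the run.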

[4] = Assay (IV) determination of solubility; format: physicochemical
Protocol: ASSAY (IV)—Determination of Solubility
The polypeptide was dissolved in water at ˜500 nmol/ml and mixed 1:1 with a series of buffers (100 mM glycylglycine pH 3.0, 100 mM glycylglycine pH 4.0, 100 mM glycylglycine pH 5.0, 100 mM bistrispropane pH 6.0, 100 mM bistrispropane pH 6.5, 100 mM bistrispropane pH 7.0, 100 mM bistrispropane pH 7.5, 100 mM bistrispropane pH 8.0). After 18 hours at room temperature the samples were centrifuged and the polypeptide concentration determined by HPLC.

[5] = Table 11, read-out: CTa receptor human EC50
[6] = Table 2, BHK amylin 3(a)-receptor/CRE-luc cells
[7] = Table 7, human calcitonin (CTa) receptor

Compound	EC50 ([1]; Table 6, human amylin receptor) [nM]	EC50 ([1]; Table 11) [nM]	EC50 [2, 5] [nM]	ThT pH 4.0 lag time (h) [3] [h]	ThT pH 4.0 recovery (%) [3] [%]	Solubility pH 8.0 [4] [μM]	EC50 [1, 6] [nM]	EC50 ([1]; Table 7, human amylin receptor) [nM]	EC50 [2, 7] [nM]
CC[C@H](C)[C@H](NC(=O)[C@@H]1CCCN1C(=O)CNC(=O)[C@H](Cc1ccccc1)NC(=O)[C@H](CC(N)=O)NC(=O)[C@H](CCCCNC(=O)COCCOCCNC(=O)COCCOCCNC(=O)CC[C@H](NC(=O)CCCCCCCCCCCCCCCCCCC(=O)O)C(=O)O)NC(=O)[C@H](CO)NC(=O)[C@H](CO)NC(=O)[C@H](Cc1c[nH]cn1)NC(=O)[C@H](Cc1c[nH]cn1)NC(=O)[C@H](CC(C)C)NC(=O)[C@H](Cc1ccccc1)NC(=O)[C@H](CC(N)=O)NC(=O)[C@H](C)NC(=O)[C@H](CC(C)C)NC(=O)[C@H](CCCNC(=N)N)NC(=O)[C@H](CCC(N)=O)NC(=O)[C@@H](NC(=O)[C@H](C)NC(=O)[C@@H]1CSSC[C@H](NC(=O)[C@@H](N)CCCCN)C(=O)N[C@@H](CC(N)=O)C(=O)N[C@@H]([C@@H](C)O)C(=O)N[C@@H](C)C(=O)N[C@@H]([C@@H](C)O)C(=O)N1)[C@@H](C)O)C(=O)N[C@@H](CC(C)C)C(=O)N[C@@H](CO)C(=O)N1CCC[C@H]1C(=O)N[C@H](C(=O)N[C@@H](CC(N)=O)C(=O)N[C@H](C(=O)NCC(=O)N[C@@H](CO)C(=O)N[C@@H](Cc1c[nH]cn1)C(=O)N[C@H](C(=O)N[C@@H](Cc1ccc(O)cc1)C(N)=O)[C@@H](C)O)C(C)C)[C@@H](C)O [Example 141, N-epsilon21-[2-(2-{2-[2-(2-{2-[(S)-4-Carboxy-4-(19-carboxyheptadecanoylamino)butyrylamino]ethoxy}ethoxy)acetylamino]ethoxy}ethoxy)acetyl]-[His17,Lys21,Ser28,His35]-pramlintide] (H-KCNTATCATQRLANFLHHSSK([AEEA-AEEA-γGlu-C20 diacid])NFGPILSPTNVGSHTY-NH2; disulfide 2-7)	0.482	0.482	0.889	0	10	1	–	–	–
CC[C@H](C)[C@H](NC(=O)[C@@H]1CCCN1C(=O)CNC(=O)[C@H](Cc1ccccc1)NC(=O)[C@H](CC(N)=O)NC(=O)[C@H](CCCCNC(=O)COCCOCCNC(=O)COCCOCCNC(=O)CC[C@H](NC(=O)CCCCCCCCCCCCCCCCCCC(=O)O)C(=O)O)NC(=O)[C@H](CO)NC(=O)[C@H](CO)NC(=O)[C@H](Cc1c[nH]cn1)NC(=O)[C@H](Cc1c[nH]cn1)NC(=O)[C@H](CC(C)C)NC(=O)[C@H](Cc1ccccc1)NC(=O)[C@H](CCC(=O)O)NC(=O)[C@H](C)NC(=O)[C@H](CC(C)C)NC(=O)[C@H](CCCNC(=N)N)NC(=O)[C@H](CCC(N)=O)NC(=O)[C@@H](NC(=O)[C@H](C)NC(=O)[C@@H]1CSSC[C@H](NC(=O)[C@@H](N)CCCCN)C(=O)N[C@@H](CC(N)=O)C(=O)N[C@@H]([C@@H](C)O)C(=O)N[C@@H](C)C(=O)N[C@@H]([C@@H](C)O)C(=O)N1)[C@@H](C)O)C(=O)N[C@@H](CC(C)C)C(=O)N[C@@H](CO)C(=O)N[C@@H](CO)C(=O)N[C@H](C(=O)N[C@@H](CC(N)=O)C(=O)N[C@H](C(=O)NCC(=O)N[C@@H](CO)C(=O)N[C@@H](Cc1c[nH]cn1)C(=O)N[C@H](C(=O)N[C@@H](Cc1ccc(O)cc1)C(N)=O)[C@@H](C)O)C(C)C)[C@@H](C)O [Example 148, N-epsilon21-[2-(2-{2-[2-(2-{2-[(S)-4-Carboxy-4-(19-carboxyheptadecanoylamino)butyrylamino]ethoxy}ethoxy)acetylamino]ethoxy}ethoxy)acetyl]-[Glu14,His17,Lys21,Ser28,Ser29,His35]-pramlintide] (H-KCNTATCATQRLAEFLHHSSK([AEEA-AEEA-γGlu-C20 diacid])NFGPILSSTNVGSHTY-NH2; disulfide 2-7)	1.03	1.03	0.319	18	5	1	1.03	1.03	0.319
CC[C@H](C)[C@H](NC(=O)[C@H](CCCCNC(=O)COCCOCCNC(=O)COCCOCCNC(=O)CC[C@H](NC(=O)CCCCCCCCCCCCCCCCCCC(=O)O)C(=O)O)NC(=O)CNC(=O)[C@H](Cc1ccccc1)NC(=O)[C@H](CC(N)=O)NC(=O)[C@H](CC(N)=O)NC(=O)[C@H](CO)NC(=O)[C@H](CO)NC(=O)[C@H](Cc1c[nH]cn1)NC(=O)[C@H](Cc1c[nH]cn1)NC(=O)[C@H](CC(C)C)NC(=O)[C@H](Cc1ccccc1)NC(=O)[C@H](CCC(=O)O)NC(=O)[C@H](C)NC(=O)[C@H](CC(C)C)NC(=O)[C@H](CCCNC(=N)N)NC(=O)[C@H](CCC(N)=O)NC(=O)[C@@H](NC(=O)[C@H](C)NC(=O)[C@@H]1CSSC[C@H](NC(=O)[C@@H](N)CCCCN)C(=O)N[C@@H](CC(N)=O)C(=O)N[C@@H]([C@@H](C)O)C(=O)N[C@@H](C)C(=O)N[C@@H]([C@@H](C)O)C(=O)N1)[C@@H](C)O)C(=O)N[C@@H](CC(C)C)C(=O)N[C@@H](CO)C(=O)N[C@@H](CO)C(=O)N[C@H](C(=O)N[C@@H](CC(N)=O)C(=O)N[C@H](C(=O)NCC(=O)N[C@@H](CO)C(=O)N[C@@H](Cc1c[nH]cn1)C(=O)N[C@H](C(=O)N[C@@H](Cc1ccc(O)cc1)C(N)=O)[C@@H](C)O)C(C)C)[C@@H](C)O [Example 142, N-epsilon25-[2-(2-{2-[2-(2-{2-[(S)-4-Carboxy-4-(19-carboxyheptadecanoylamino)butyrylamino]ethoxy}ethoxy)acetylamino]ethoxy}ethoxy)acetyl]-[Glu14,His17,Lys25,Ser28,Ser29,His35]-pramlintide] (H-KCNTATCATQRLAEFLHHSSNNFGK([AEEA-AEEA-γGlu-C20 diacid])ILSSTNVGSHTY-NH2; disulfide 2-7)	0.301	0.301	0.11	0	25	1	0.301	0.301	0.11
CC[C@H](C)[C@H](NC(=O)[C@@H]1CCCN1C(=O)CNC(=O)[C@H](Cc1ccccc1)NC(=O)[C@H](CC(N)=O)NC(=O)[C@H](CCCCNC(=O)COCCOCCNC(=O)COCCOCCNC(=O)CC[C@H](NC(=O)CCCCCCCCCCCCCCCCCCC(=O)O)C(=O)O)NC(=O)[C@H](CO)NC(=O)[C@H](CO)NC(=O)[C@H](Cc1c[nH]cn1)NC(=O)[C@@H](NC(=O)[C@H](CC(C)C)NC(=O)[C@H](Cc1ccccc1)NC(=O)[C@H](CCC(=O)O)NC(=O)[C@H](C)NC(=O)[C@H](CC(C)C)NC(=O)[C@H](CCCNC(=N)N)NC(=O)[C@H](CCC(N)=O)NC(=O)[C@@H](NC(=O)[C@H](C)NC(=O)[C@@H]1CSSC[C@H](NC(=O)[C@@H](N)CCCCN)C(=O)N[C@@H](CC(N)=O)C(=O)N[C@@H]([C@@H](C)O)C(=O)N[C@@H](C)C(=O)N[C@@H]([C@@H](C)O)C(=O)N1)[C@@H](C)O)C(C)C)C(=O)N[C@@H](CC(C)C)C(=O)N[C@@H](CO)C(=O)N[C@@H](CCCNC(=N)N)C(=O)N[C@H](C(=O)N[C@@H](CC(N)=O)C(=O)N[C@H](C(=O)NCC(=O)N[C@@H](CO)C(=O)N[C@@H](Cc1c[nH]cn1)C(=O)N[C@H](C(=O)N[C@@H](Cc1ccc(O)cc1)C(N)=O)[C@@H](C)O)C(C)C)[C@@H](C)O [Example 147, N-epsilon21-[2-(2-{2-[2-(2-{2-[(S)-4-Carboxy-4-(19-carboxyheptadecanoylamino)butyrylamino]ethoxy}ethoxy)acetylamino]ethoxy}ethoxy)acetyl]-[Glu14,Lys21,Ser28,Arg29,His35]-pramlintide] (H-KCNTATCATQRLAEFLVHSSK([AEEA-AEEA-γGlu-C20 diacid])NFGPILSRTNVGSHTY-NH2; disulfide 2-7)	0.54	0.54	0.229	1	11	1	0.54	0.54	0.229
